Over roughly 33,000 sequences, “E-score (dimensionless, -0.5 to 0.5)” has its median near -0.058; the highest 2% begin near 0.35. Some of the results follow.
These sequences were tested on MvaT (assay: PBM 8-mer E-score (mean of HK and ME arrays) (E-score (dimensionless, -0.5 to 0.5)); higher = stronger relative binding preference; most listed sequences are background and not binding sites).
Summary of the method: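 Full-length P. aeruginosa MvaT carrying an N-terminal glutathione S-transferase tag was tested by protein binding microarray following a previously described protocol. Two universal double-stranded 60-mer arrays, ME and HK, were used, each with a constant 25-mer primer region and a variable 35-mer region covering all 8-mers. The rank-based E-score is the mean of the two arrays, parsed with a custom script. Its range runs from -0.5 to 0.5 for each 8-mer.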
In the case of TAACATGA, the “PBM 8-mer E-score” value is reported as 0.213. For TCGGTGAA, the “PBM 8-mer E-score” value was -0.0285. With AAGCTTAC the “PBM 8-mer E-score” value was -0.0497. For ATTAAGCA, the “PBM 8-mer E-score” value was 0.308. For CAGTGCTC, the “PBM 8-mer E-score” value was -0.223. In the case of AAAACCTC, the “PBM 8-mer E-score” value is reported as -0.0209. For CGCCCTGC, the “PBM 8-mer E-score” value was -0.238. GAGGGAGA was tested, and the “PBM 8-mer E-score” value was -0.1. CGAGGTTA was tested, and the “PBM 8-mer E-score” value was 0.0753. With CCTTTTTA the “PBM 8-mer E-score” value was 0.0589. With TGAGGCCA the “PBM 8-mer E-score” value was -0.265. With ACTGTGCA the “PBM 8-mer E-score” value was -0.0352. For AGCCTACG, the “PBM 8-mer E-score” value was -0.316. For CATTGGAC, the “PBM 8-mer E-score” value was -0.133. CGTAAATC was tested, and the “PBM 8-mer E-score” value was -0.0508. AGTCAGGG was tested, and the “PBM 8-mer E-score” value was -0.214. For AGCCTTGC, the “PBM 8-mer E-score” value was -0.244. With ACTATGTC the “PBM 8-mer E-score” value was 0.0542. With ATAGGCTG the “PBM 8-mer E-score” value was -0.0757. With GCTTCGAC the “PBM 8-mer E-score” value was -0.16. In the case of ACGTAGGG, the “PBM 8-mer E-score” value is reported as -0.17. With GTGGTTGA the “PBM 8-mer E-score” value was -0.0208. With AGATGGAA the “PBM 8-mer E-score” value was -0.1. AATTTAGT was tested, and the “PBM 8-mer E-score” value was 0.303. TGCGGCCA was tested, and the “PBM 8-mer E-score” value was -0.279. In the case of CGAGCAGC, the “PBM 8-mer E-score” value is reported as -0.167. GAGGATCA was tested, and the “PBM 8-mer E-score” value was -0.141. For CCAAATGG, the “PBM 8-mer E-score” value was -0.134. With CGGTTCGC the “PBM 8-mer E-score” value was -0.173. In the case of AAGGCGTA, the “PBM 8-mer E-score” value is reported as -0.111. In the case of ACACCCGC, the “PBM 8-mer E-score” value is reported as -0.091. For GACCAAAC, the “PBM 8-mer E-score” value was -0.0191. For TAGTCCGA, the “PBM 8-mer E-score” value was -0.111. GCTCAGCA was tested, and the “PBM 8-mer E-score” value was -0.189. For AAGTATTA, the “PBM 8-mer E-score” value was 0.388. CTTGGACA was tested, and the “PBM 8-mer E-score” value was -0.17. With AGCCCTAT the “PBM 8-mer E-score” value was -0.14. For CTTACACC, the “PBM 8-mer E-score” value was 0.172. AAAAACAT was tested, and the “PBM 8-mer E-score” value was 0.166. In the case of ACCCCTAC, the “PBM 8-mer E-score” value is reported as -0.29. In the case of AATAGGTG, the “PBM 8-mer E-score” value is reported as 0.164. For AGTTTTTA, the “PBM 8-mer E-score” value was 0.247. With AGGAAGCA the “PBM 8-mer E-score” value was -0.123. AGATTCAT was tested, and the “PBM 8-mer E-score” value was 0.135. With CAGTCGCC the “PBM 8-mer E-score” value was -0.272. For TGAACCCA, the “PBM 8-mer E-score” value was -0.000255. With GAAACTTA the “PBM 8-mer E-score” value was 0.235. For CGTAGAAA, the “PBM 8-mer E-score” value was 0.0577. In the case of AAACTTTA, the “PBM 8-mer E-score” value is reported as 0.357. AGCCGGAT was tested, and the “PBM 8-mer E-score” value was -0.211. In the case of CACAACAA, the “PBM 8-mer E-score” value is reported as 0.258. For AATCTGGT, the “PBM 8-mer E-score” value was 0.0291. With CGTACTAC the “PBM 8-mer E-score” value was 0.0793. For CCTGAGGA, the “PBM 8-mer E-score” value was -0.22. With CAAGTGGA the “PBM 8-mer E-score” value was -0.173. With ATTGCAGA the “PBM 8-mer E-score” value was -0.0207. CCGTAACC was tested, and the “PBM 8-mer E-score” value was 0.0259. With AGGGCACT the “PBM 8-mer E-score” value was -0.175. With ATCTCTTG the “PBM 8-mer E-score” value was 0.0688. CTCCCATA was tested, and the “PBM 8-mer E-score” value was -0.12. For GCTACGCC, the “PBM 8-mer E-score” value was -0.323. In the case of GAGGGAAA, the “PBM 8-mer E-score” value is reported as -0.132. For CCTCATGC, the “PBM 8-mer E-score” value was -0.328. CACCCTGG was tested, and the “PBM 8-mer E-score” value was -0.306. For ACAGCCAC, the “PBM 8-mer E-score” value was -0.173. In the case of ACTTCATG, the “PBM 8-mer E-score” value is reported as 0.0205. In the case of CACCCGTA, the “PBM 8-mer E-score” value is reported as -0.039. With AAATTCAT the “PBM 8-mer E-score” value was 0.206. For ATCGTCCG, the “PBM 8-mer E-score” value was -0.132. With ACGCGCCG the “PBM 8-mer E-score” value was -0.262. In the case of AATCCATG, the “PBM 8-mer E-score” value is reported as -0.0623. For AGAGGAGC, the “PBM 8-mer E-score” value was -0.346. For AACAGTTA, the “PBM 8-mer E-score” value was 0.31. For CCGCGAAC, the “PBM 8-mer E-score” value was -0.117. GGCGGAAA was tested, and the “PBM 8-mer E-score” value was -0.0452. AGGCTCAG was tested, and the “PBM 8-mer E-score” value was -0.191. In the case of CCTAGGTA, the “PBM 8-mer E-score” value is reported as -0.0515. With CGGGAAAC the “PBM 8-mer E-score” value was -0.121. For ATACCCCC, the “PBM 8-mer E-score” value was -0.237. For CCCCCACC, the “PBM 8-mer E-score” value was -0.297. ATACTCTC was tested, and the “PBM 8-mer E-score” value was 0.0782. For CACGGGAA, the “PBM 8-mer E-score” value was -0.129. With GAGAACCA the “PBM 8-mer E-score” value was -0.183. With ACTCTGAG the “PBM 8-mer E-score” value was -0.0985. CGGTCGTC was tested, and the “PBM 8-mer E-score” value was -0.347. ACCATGGT was tested, and the “PBM 8-mer E-score” value was -0.177. With CCCCTTTA the “PBM 8-mer E-score” value was -0.176. In the case of CCCAGACG, the “PBM 8-mer E-score” value is reported as -0.128. For CCGATGCC, the “PBM 8-mer E-score” value was -0.243. In the case of ATTTGCGG, the “PBM 8-mer E-score” value is reported as -0.063. In the case of TAGCGAGA, the “PBM 8-mer E-score” value is reported as -0.013. In the case of AATCGAAG, the “PBM 8-mer E-score” value is reported as -0.00549. With CAATCCTG the “PBM 8-mer E-score” value was -0.039. CACTCCGG was tested, and the “PBM 8-mer E-score” value was -0.225. In the case of ATGGCTGA, the “PBM 8-mer E-score” value is reported as -0.163. CGCCGGAC was tested, and the “PBM 8-mer E-score” value was -0.155. AGACCCGA was tested, and the “PBM 8-mer E-score” value was -0.133. CCGCGTCA was tested, and the “PBM 8-mer E-score” value was -0.18. AGCCTAGC was tested, and the “PBM 8-mer E-score” value was -0.306. With AACCCTCT the “PBM 8-mer E-score” value was -0.36. With ACCTCTTG the “PBM 8-mer E-score” value was -0.155. For TAGCACGA, the “PBM 8-mer E-score” value was 0.00258. With TGCTACCA the “PBM 8-mer E-score” value was -0.206. In the case of CTACACTC, the “PBM 8-mer E-score” value is reported as -0.0376. AACCCGAA was tested, and the “PBM 8-mer E-score” value was -0.0227. With CAACGACC the “PBM 8-mer E-score” value was -0.155. For GTGGGAAA, the “PBM 8-mer E-score” value was -0.0907. For AGGACCCC, the “PBM 8-mer E-score” value was -0.22. In the case of CGGGCCCA, the “PBM 8-mer E-score” value is reported as -0.328. In the case of CCGATTCA, the “PBM 8-mer E-score” value is reported as -0.128. With ATTAGACC the “PBM 8-mer E-score” value was 0.0805. For CCGCAAAA, the “PBM 8-mer E-score” value was -0.0181. For CCGGGTAC, the “PBM 8-mer E-score” value was -0.17. CTCACCCA was tested, and the “PBM 8-mer E-score” value was -0.079. For GCCACGGA, the “PBM 8-mer E-score” value was -0.226. AACAACTT was tested, and the “PBM 8-mer E-score” value was 0.358. For CTCCCATC, the “PBM 8-mer E-score” value was -0.218. With CAGAGACA the “PBM 8-mer E-score” value was -0.164. For ACACCTCT, the “PBM 8-mer E-score” value was -0.0675. In the case of GACTATCC, the “PBM 8-mer E-score” value is reported as -0.0423. For ATTAGTAG, the “PBM 8-mer E-score” value was 0.273. With GCTGCAAA the “PBM 8-mer E-score” value was 0.094. TTATGAAA was tested, and the “PBM 8-mer E-score” value was 0.303. In the case of AGCTCGTC, the “PBM 8-mer E-score” value is reported as -0.146. ACAACTTC was tested, and the “PBM 8-mer E-score” value was 0.201. For CGGCCTCA, the “PBM 8-mer E-score” value was -0.214. GAATTAGA was tested, and the “PBM 8-mer E-score” value was 0.106. ACACTTTG was tested, and the “PBM 8-mer E-score” value was 0.0598. GAGACCAC was tested, and the “PBM 8-mer E-score” value was -0.107. With CGATCGGA the “PBM 8-mer E-score” value was -0.143. For AGTTTGTA, the “PBM 8-mer E-score” value was 0.299. In the case of CCGACTCA, the “PBM 8-mer E-score” value is reported as 0.00996. CAAGAGTA was tested, and the “PBM 8-mer E-score” value was 0.023. In the case of ATTTGAAG, the “PBM 8-mer E-score” value is reported as 0.229. GACCTACC was tested, and the “PBM 8-mer E-score” value was -0.136. In the case of ATATCGAC, the “PBM 8-mer E-score” value is reported as 0.202. For CGTATTCA, the “PBM 8-mer E-score” value was 0.121. In the case of CGATTACG, the “PBM 8-mer E-score” value is reported as -0.0865. In the case of ATACCAGC, the “PBM 8-mer E-score” value is reported as 0.076. In the case of AGGTTGAT, the “PBM 8-mer E-score” value is reported as -0.0683. With AGCAGATG the “PBM 8-mer E-score” value was -0.0501. CCATTTCA was tested, and the “PBM 8-mer E-score” value was 0.0114. CGCGACTC was tested, and the “PBM 8-mer E-score” value was -0.0414. With TATAGAGA the “PBM 8-mer E-score” value was 0.155. CGTGACAC was tested, and the “PBM 8-mer E-score” value was -0.251. For AAAGCGGG, the “PBM 8-mer E-score” value was 0.0158. With AATCGAAA the “PBM 8-mer E-score” value was 0.226. For GCAACGAC, the “PBM 8-mer E-score” value was -0.141. For CTCATGTA, the “PBM 8-mer E-score” value was 0.156. In the case of GCTAACTA, the “PBM 8-mer E-score” value is reported as 0.16. For AGTACGAG, the “PBM 8-mer E-score” value was 0.0471. With AACGGCGT the “PBM 8-mer E-score” value was -0.0798. In the case of CGACTTAG, the “PBM 8-mer E-score” value is reported as -0.0985. In the case of ACCAAACG, the “PBM 8-mer E-score” value is reported as -0.121. With ACTCCAGT the “PBM 8-mer E-score” value was -0.0776. With GAGTTTAC the “PBM 8-mer E-score” value was 0.141. For CTACTGTC, the “PBM 8-mer E-score” value was 0.0058. For ACTAACAT, the “PBM 8-mer E-score” value was 0.322. In the case of GCCCCTTA, the “PBM 8-mer E-score” value is reported as -0.239. GCCCTAAA was tested, and the “PBM 8-mer E-score” value was 0.0588. ACTCTTCG was tested, and the “PBM 8-mer E-score” value was -0.157. With AATTATCG the “PBM 8-mer E-score” value was 0.336. For TGCGCACA, the “PBM 8-mer E-score” value was -0.029. TACTAGTA was tested, and the “PBM 8-mer E-score” value was 0.269. In the case of ATATTACC, the “PBM 8-mer E-score” value is reported as 0.293. In the case of GAGGTCCC, the “PBM 8-mer E-score” value is reported as -0.236. With CAGCCGCC the “PBM 8-mer E-score” value was -0.157. ACTAGAGC was tested, and the “PBM 8-mer E-score” value was -0.14. With ACATAGGA the “PBM 8-mer E-score” value was 0.178. With GCTCTCGA the “PBM 8-mer E-score” value was -0.0844. GAGTTCGA was tested, and the “PBM 8-mer E-score” value was -0.115. For AATCGGGG, the “PBM 8-mer E-score” value was -0.0645.

Source: the supplement of paper PMC4466236
